In the supplement of paper PMC4166925:
± gives the standard deviation of the averaged measurements. The full ranking holds about 33,000 sequences; the median of “E-score (dimensionless, -0.5 to 0.5)” is about -0.049, and the highest 2% start at about 0.37. This is one part of the list.

system: T1, PmTbr T-box DNA-binding domain (GST fusion); experiment: PBM E-score of 8-mer (E-score (dimensionless, -0.5 to 0.5)); Tbr is Tbrain of the sea star Patiria miniata (Pm) or the sea urchin Strongylocentrotus purpuratus (Sp); higher = stronger binding preference; most listed sequences are background and not binding sites; conditions: the construct has about 5 more residues each side
T1 sequence: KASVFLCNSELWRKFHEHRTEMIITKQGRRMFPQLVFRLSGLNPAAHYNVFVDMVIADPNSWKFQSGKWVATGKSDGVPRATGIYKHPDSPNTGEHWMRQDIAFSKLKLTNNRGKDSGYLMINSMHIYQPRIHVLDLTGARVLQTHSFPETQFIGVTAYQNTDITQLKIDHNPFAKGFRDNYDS
Summary of the method: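 Primer extension turned Universal Agilent oligonucleotide arrays double-stranded. They were incubated with 200 nM protein in PBS (pH 7.5); the protein was a GST-fused Tbr T-box DNA-binding domain expressed in BL21 E. coli at 20 °C and purified on glutathione. Every ungapped 8-mer was scored from the scanned, quantified probe intensities, and the Universal PBM Analysis Suite gave each an enrichment E-score averaged over duplicate arrays.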

Point of comparison: AGGCTCAC, “PBM E-score of 8-mer” value -0.0762 ± 0.054. Against it:
- CCCTAAAC — within error, -0.147 ± 0.068
- CGCGAGCA — higher, 0.153 ± 0.07
- ATAGAATG — within error, -0.183 ± 0.078
- ATACTAAT — within error, -0.0663 ± 0.031
- GCCATGCC — within error, 0.0291 ± 0.057
- GCATTGGA — lower, -0.209 ± 0.011
- GAAGGGTA — higher, 0.00266 ± 0.009
- CATAATAC — higher, 0.0267 ± 0.045
- CAGATATG — within error, -0.0935 ± 0.078
- ATTCTAGC — within error, 0.0324 ± 0.064
- TCAAAGAA — lower, -0.17 ± 0.033
- GTGGGTTA — higher, 0.0414 ± 0.051
- AGCATTTC — higher, 0.00277 ± 0.021
- CACTTAAA — higher, 0.158 ± 0.01
- CTTCGGAA — lower, -0.201 ± 0.042
- GACCCCCC — lower, -0.339 ± 0.087
- ATACTTCG — within error, -0.0455 ± 0.0063
- TAAAAGCA — within error, -0.0606 ± 0.1
- TCTTGGAA — within error, -0.184 ± 0.066
- AGGCCACC — lower, -0.157 ± 0.011
- AGAATAAT — within error, -0.197 ± 0.12
- GATCTTGA — higher, 0.0546 ± 0.058
- AAGCGCCG — within error, -0.0564 ± 0.022
- CCAACAAC — higher, 0.0262 ± 0.0053
- GGACGAAA — within error, -0.0641 ± 0.055
- AAAGTTGA — higher, 0.132 ± 0.026
- CCTCTACA — within error, -0.0666 ± 0.0084
- ATGTTTGG — within error, -0.083 ± 0.1
- AATCCTCC — within error, -0.12 ± 0.052
- ACGGCTGA — lower, -0.164 ± 0.024
- CCTTCTTC — within error, -0.0984 ± 0.033
- AGCGACAC — higher, 0.317 ± 0.054
- AACTGTCG — higher, 0.272 ± 0.0081
- AGCCGACA — higher, 0.165 ± 0.007
- CTATCTCC — lower, -0.155 ± 0.013
- CGGTGATC — within error, -0.042 ± 0.075
- TGAACGCA — lower, -0.234 ± 0.048
- AATCTTCG — within error, -0.0794 ± 0.0073
- ATAAGCAT — within error, -0.059 ± 0.059
- CAGGTGGG — higher, 0.268 ± 0.043
- CAAGATAC — within error, -0.0606 ± 0.075
- ATGGAAGA — lower, -0.342 ± 0.028
- ATGTATAA — within error, -0.0805 ± 0.12
- AAGCGATG — higher, -0.00845 ± 0.0036
- GGAGATTA — within error, -0.0891 ± 0.063
- TGGGCCAA — within error, -0.093 ± 0.046
- GAAAACAA — within error, -0.0678 ± 0.067
- CATTACGC — higher, 0.0454 ± 0.039
- ATGTGGGC — within error, -0.0882 ± 0.093
- CGATAGGA — within error, -0.0999 ± 0.11
- ACGGACGG — within error, -0.111 ± 0.053
- CACAGCTA — higher, 0.2796 ± 0.0012
- GCTCCAGA — lower, -0.259 ± 0.031
- AATCCCAC — higher, 0.0797 ± 0.054
- CGTCGCCC — higher, 0.162 ± 0.026
- CCCCAGCC — within error, -0.0201 ± 0.05
- CGCACCCC — higher, 0.325 ± 0.019
- TTAGCCAA — within error, -0.122 ± 0.032
- TAACAGAA — within error, -0.0289 ± 0.036
- CGTTCGCA — higher, 0.38 ± 0.037
- CCGGGTAG — higher, 0.0105 ± 0.028
- CGTAACGA — lower, -0.221 ± 0.054
- ACTGCGGC — higher, 0.0302 ± 0.051
- GCTGGGAA — higher, 0.05 ± 0.052
- ATCTCTCA — higher, 0.226 ± 0.023
- TAAGTGTA — higher, 0.217 ± 0.021
- CCTTTATC — within error, -0.023 ± 0.017
- CTCCCAGC — higher, 0.0766 ± 0.048
- TAAGGATA — lower, -0.151 ± 0.01
- ATTATTCA — lower, -0.296 ± 0.037
- CATTTTGA — lower, -0.186 ± 0.029
- CGCTTAAA — higher, 0.131 ± 0.024
- CGACCCCG — within error, -0.0978 ± 0.14
- AGACTACG — lower, -0.293 ± 0.006
- GCATACAC — within error, -0.0288 ± 0.0062
- AAATATAG — within error, -0.116 ± 0.11
- GAGGCTCA — lower, -0.187 ± 0.026
- CAGTGTAC — within error, -0.073 ± 0.034
- TAACAATA — higher, 0.132 ± 0.022
- ATGGTTGA — higher, 0.0719 ± 0.042
- ACGGCCAC — higher, 0.0792 ± 0.025
- CACAACTA — higher, 0.189 ± 0.021
- CTCACAAA — within error, -0.00988 ± 0.043
- CGCGTGGC — higher, 0.103 ± 0.049
- AATTCAGG — lower, -0.258 ± 0.046
- AATCAATG — within error, -0.0237 ± 0.023
- GGTGCTAA — higher, 0.4753 ± 0.00081
- AATCTACG — within error, -0.133 ± 0.07
- GTGTGAGA — higher, 0.4583 ± 0.0027
- AATGTTAG — lower, -0.266 ± 0.027
- GCTCCTGA — within error, -0.206 ± 0.08
- CACAAGCG — higher, 0.0575 ± 0.0014
- GAGAGAAC — higher, 0.0287 ± 0.025
- ACTGGAAT — lower, -0.239 ± 0.0024
- CGCAGGGC — higher, 0.0745 ± 0.024
- CGGAATAG — lower, -0.219 ± 0.012
- TATCTTCA — within error, -0.056 ± 0.057
- CGGTTGCC — lower, -0.206 ± 0.045
- AGAGTGTG — higher, 0.34 ± 0.01
- ACAGTTAG — higher, 0.0702 ± 0.027
- GACTCGTA — within error, -0.107 ± 0.025
- ACACATAG — higher, 0.268 ± 0.022
- CACTATGG — higher, 0.12 ± 0.036
- CTTTACGC — within error, -0.0839 ± 0.019
- CAATCCAG — higher, 0.00948 ± 0.028
- AGCGTCAT — higher, 0.134 ± 0.021
- CAAAGCGG — lower, -0.1864 ± 0.00049
- TCTGACAA — higher, 0.112 ± 0.048
- CCGTTCCA — higher, 0.0138 ± 0.0051
- CGCAACTA — higher, 0.167 ± 0.0037
- AGCTATTA — within error, -0.0848 ± 0.081
- ATAATTCA — higher, 0.129 ± 0.036
- GAAGGCGC — higher, 0.271 ± 0.0057
- GAGCCTAA — within error, -0.074 ± 0.065
- CGTTAACG — higher, 0.266 ± 0.015
- CAAGAACC — lower, -0.1413 ± 0.00053
- TGCCGTAA — lower, -0.185 ± 0.0069
- AAAGACCG — within error, -0.149 ± 0.032
- CCGACCTA — lower, -0.179 ± 0.0083
- GAAACTGA — within error, -0.0776 ± 0.023
- ATCGAGAT — within error, -0.0194 ± 0.029
- GCACTCCC — within error, 0.0702 ± 0.12
- TCGGTCAA — within error, -0.0753 ± 0.01
- CGTCGCTA — higher, 0.0903 ± 0.017
- CGCCTTGA — higher, 0.153 ± 0.016
- CTCCCCGA — lower, -0.16 ± 0.011
- ACATAAGT — higher, 0.119 ± 0.016
- GATTAAGC — within error, -0.115 ± 0.034
- AAACTTCA — within error, -0.047 ± 0.1
- CAAATCTG — higher, 0.131 ± 0.044
- AATTTAGC — within error, 0.0784 ± 0.11
- AAAGTTCT — within error, -0.147 ± 0.056
- ACGGCGAT — within error, -0.115 ± 0.06
- CACTACAA — higher, 0.0388 ± 0.036
- ACGCGACG — higher, 0.237 ± 0.016
- CGACCTAA — within error, -0.135 ± 0.037
- CGAGTCTC — lower, -0.153 ± 0.0017
- GTTTATAA — within error, -0.0711 ± 0.03
- ACCCGTGC — higher, 0.0856 ± 0.025
- CAAGATTG — higher, 0.165 ± 0.0046
- CCTGCAGG — within error, -0.11 ± 0.0062
- CATAGTCA — within error, -0.017 ± 0.036
- CACCCCTC — higher, 0.278 ± 0.0062
- AGAAGAGG — lower, -0.155 ± 0.022
- ATAACTAC — lower, -0.184 ± 0.0098
- GCCACCGC — within error, -0.0625 ± 0.015
- ATCGGTTA — within error, -0.0435 ± 0.019
- GAAGAAAA — within error, 0.00828 ± 0.14
- CTTTATTC — within error, -0.129 ± 0.012
- CCCTGGCC — lower, -0.186 ± 0.0043
- CATAGGAC — lower, -0.177 ± 0.025
- CAGAACGA — within error, -0.068 ± 0.014
- AGATCGCC — higher, 0.118 ± 0.021
- AGAAACCA — within error, -0.162 ± 0.068
- GGGGAAAA — within error, -0.0423 ± 0.045
- ATCCTAGC — higher, 0.115 ± 0.025
- CGGCTGCA — within error, -0.132 ± 0.04
- GTTCTACA — within error, -0.0213 ± 0.066
- ACCTAAAC — higher, 0.216 ± 0.075
- CCCATACA — lower, -0.193 ± 0.039
- ATGCCTGG — lower, -0.292 ± 0.02
- ACTTGCAT — within error, -0.0498 ± 0.1
- GCTACGTA — lower, -0.187 ± 0.0032
- ATTGCAGC — within error, -0.0944 ± 0.071
- ACAGCGGG — higher, 0.101 ± 0.014
- CTTAACTA — within error, 0.00909 ± 0.057
- ATCTTAAG — within error, -0.0687 ± 0.01
- CTAGTGAG — higher, 0.147 ± 0.021
- CGTCTGAC — within error, -0.0571 ± 0.042
- CAGGTGGA — higher, 0.0502 ± 0.00076
- TGTAACAA — higher, 0.158 ± 0.0033
